# Experimental data from the supplement of paper PMC8728848.
# The list shows a part of the results.
# Key:
# Assay in all cases: glycan array binding signal (z-score within array); higher = stronger binding
# Conditions in all cases: glycan notation: IUPAC condensed, linker removed
# Gal(b1-4)Glc6S = molecular target: Gal(b1-4)Glc6S
# Method in brief: (§1)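 Arrays were curated from the Consortium for Functional Glycomics database, 3228 in total, and kept only where the protein sequence was available. Binding is expressed as a within-array Z-score. This score was averaged across arrays of the same protein sequence at different concentrations or buffers and across linkers, and negative values can be read as non-binding.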
# Gal(b1-4)GlcNAc = molecular target: Gal(b1-4)GlcNAc
# Method in brief: as §1
# [1] = molecular target: Gal(b1-4)GlcNAc(a1-6)Gal(b1-4)GlcNAc
# Method in brief: as §1
# Gal(b1-4)GlcNAc(b1-2)Man = molecular target: Gal(b1-4)GlcNAc(b1-2)Man
# Method in brief: as §1
# [2] = molecular target: Gal(b1-4)GlcNAc(b1-2)Man(a1-3)Man(b1-4)GlcNAc(b1-4)GlcNAc
# Method in brief: as §1
# [3] = molecular target: Gal(b1-4)GlcNAc(b1-2)Man(a1-3)[Gal(b1-4)GlcNAc(b1-2)Man(a1-6)]Man(b1-4)GlcNAc(b1-4)GlcNAc
# Method in brief: as §1
# [4] = molecular target: Gal(b1-4)GlcNAc(b1-2)Man(a1-3)[Gal(b1-4)GlcNAc(b1-2)Man(a1-6)]Man(b1-4)GlcNAc(b1-4)[Fuc(a1-6)]GlcNAc
# Method in brief: as §1
# [5] = molecular target: Gal(b1-4)GlcNAc(b1-2)Man(a1-3)[Gal(b1-4)GlcNAc(b1-2)Man(a1-6)][Gal(b1-4)GlcNAc(b1-4)]Man(b1-4)GlcNAc(b1-4)[Fuc(a1-6)]GlcNAc
# Method in brief: as §1
# [6] = molecular target: Gal(b1-4)GlcNAc(b1-2)Man(a1-3)[Gal(b1-4)GlcNAc(b1-2)Man(a1-6)][GlcNAc(b1-4)]Man(b1-4)GlcNAc(b1-4)[Fuc(a1-6)]GlcNAc
# Method in brief: as §1
# [7] = molecular target: Gal(b1-4)GlcNAc(b1-2)Man(a1-3)[GlcNAc(b1-2)Man(a1-6)]Man(b1-4)GlcNAc(b1-4)GlcNAc
# Method in brief: as §1
# [8] = molecular target: Gal(b1-4)GlcNAc(b1-2)Man(a1-3)[GlcNAc(b1-4)][Gal(b1-4)GlcNAc(b1-2)Man(a1-6)]Man(b1-4)GlcNAc(b1-4)GlcNAc
# Method in brief: as §1
# [9] = molecular target: Gal(b1-4)GlcNAc(b1-2)Man(a1-3)[Man(a1-6)]Man(b1-4)GlcNAc(b1-4)GlcNAc
# Method in brief: as §1
# [10] = molecular target: Gal(b1-4)GlcNAc(b1-2)Man(a1-6)Man(b1-4)GlcNAc(b1-4)GlcNAc
# Method in brief: as §1
# [11] = molecular target: Gal(b1-4)GlcNAc(b1-2)Man(a1-6)[GlcNAc(b1-2)Man(a1-3)]Man(b1-4)GlcNAc(b1-4)GlcNAc
# Method in brief: as §1
# [12] = molecular target: Gal(b1-4)GlcNAc(b1-2)Man(a1-6)[Man(a1-3)]Man(b1-4)GlcNAc(b1-4)GlcNAc
# Method in brief: as §1
# [13] = molecular target: Gal(b1-4)GlcNAc(b1-2)[Gal(b1-4)GlcNAc(b1-4)]Man(a1-3)[Gal(b1-4)GlcNAc(b1-2)Man(a1-6)]Man(b1-4)GlcNAc(b1-4)GlcNAc
# Method in brief: as §1
# [14] = molecular target: Gal(b1-4)GlcNAc(b1-2)[Gal(b1-4)GlcNAc(b1-4)]Man(a1-3)[Gal(b1-4)GlcNAc(b1-2)[Gal(b1-4)GlcNAc(b1-6)]Man(a1-6)]Man(b1-4)GlcNAc(b1-4)GlcNAc
# Method in brief: as §1
# [15] = molecular target: Gal(b1-4)GlcNAc(b1-2)[Gal(b1-4)GlcNAc(b1-4)]Man(a1-3)[GlcNAc(b1-4)][Gal(b1-4)GlcNAc(b1-2)Man(a1-6)]Man(b1-4)GlcNAc(b1-4)GlcNAc
# Method in brief: as §1
# [16] = molecular target: Gal(b1-4)GlcNAc(b1-2)[Gal(b1-4)GlcNAc(b1-4)]Man(a1-3)[GlcNAc(b1-4)][Gal(b1-4)GlcNAc(b1-2)[Gal(b1-4)GlcNAc(b1-6)]Man(a1-6)]Man(b1-4)GlcNAc(b1-4)GlcNAc
# Method in brief: as §1
# [17] = molecular target: Gal(b1-4)GlcNAc(b1-2)[Gal(b1-4)GlcNAc(b1-6)]Man(a1-6)[Gal(b1-4)GlcNAc(b1-2)Man(a1-3)]Man(b1-4)GlcNAc(b1-4)GlcNAc
# Method in brief: as §1
# [18] = molecular target: Gal(b1-4)GlcNAc(b1-2)[Gal(b1-4)GlcNAc(b1-6)]Man(a1-6)[Gal(b1-4)GlcNAc(b1-2)Man(a1-3)]Man(b1-4)GlcNAc(b1-4)[Fuc(a1-6)]GlcNAc
# Method in brief: as §1
# [19] = molecular target: Gal(b1-4)GlcNAc(b1-2)[Gal(b1-4)GlcNAc(b1-6)]Man(a1-6)[GlcNAc(b1-4)][Gal(b1-4)GlcNAc(b1-2)Man(a1-3)]Man(b1-4)GlcNAc(b1-4)GlcNAc
# Method in brief: as §1
# [20] = molecular target: Gal(b1-4)GlcNAc(b1-2)[Gal(b1-4)GlcNAc(b1-6)]Man(a1-6)[GlcNAc(b1-4)][Gal(b1-4)GlcNAc(b1-2)[Gal(b1-4)GlcNAc(b1-4)]Man(a1-3)]Man(b1-4)GlcNAc(b1-4)[Fuc(a1-6)]GlcNAc
# Method in brief: as §1
# [21] = molecular target: Gal(b1-4)GlcNAc(b1-3)Gal(b1-3)GalNAc
# Method in brief: as §1
# [22] = molecular target: Gal(b1-4)GlcNAc(b1-3)Gal(b1-3)GlcNAc
# Method in brief: as §1
# [23] = molecular target: Gal(b1-4)GlcNAc(b1-3)Gal(b1-4)Glc
# Method in brief: as §1
# [24] = molecular target: Gal(b1-4)GlcNAc(b1-3)Gal(b1-4)GlcNAc
# Method in brief: as §1
# [25] = molecular target: Gal(b1-4)GlcNAc(b1-3)Gal(b1-4)GlcNAc(b1-2)Man(a1-3)[Gal(b1-4)GlcNAc(b1-3)Gal(b1-4)GlcNAc(b1-2)Man(a1-6)]Man(b1-4)GlcNAc(b1-4)GlcNAc
# Method in brief: as §1
# [26] = molecular target: Gal(b1-4)GlcNAc(b1-3)Gal(b1-4)GlcNAc(b1-2)Man(a1-3)[Gal(b1-4)GlcNAc(b1-3)Gal(b1-4)GlcNAc(b1-2)Man(a1-6)]Man(b1-4)GlcNAc(b1-4)[Fuc(a1-6)]GlcNAc
# Method in brief: as §1
# [27] = molecular target: Gal(b1-4)GlcNAc(b1-3)Gal(b1-4)GlcNAc(b1-2)[Gal(b1-4)GlcNAc(b1-3)Gal(b1-4)GlcNAc(b1-6)]Man(a1-6)[Gal(b1-4)GlcNAc(b1-3)Gal(b1-4)GlcNAc(b1-2)Man(a1-3)]Man(b1-4)GlcNAc(b1-4)GlcNAc
# Method in brief: as §1
# [28] = molecular target: Gal(b1-4)GlcNAc(b1-3)Gal(b1-4)GlcNAc(b1-2)[Gal(b1-4)GlcNAc(b1-3)Gal(b1-4)GlcNAc(b1-6)]Man(a1-6)[Gal(b1-4)GlcNAc(b1-3)Gal(b1-4)GlcNAc(b1-2)Man(a1-3)]Man(b1-4)GlcNAc(b1-4)[Fuc(a1-6)]GlcNAc
# Method in brief: as §1
# [29] = molecular target: Gal(b1-4)GlcNAc(b1-3)Gal(b1-4)GlcNAc(b1-3)Gal(b1-4)GlcNAc
# Method in brief: as §1
# [30] = molecular target: Gal(b1-4)GlcNAc(b1-3)Gal(b1-4)GlcNAc(b1-3)Gal(b1-4)GlcNAc(b1-2)Man(a1-3)[Gal(b1-4)GlcNAc(b1-3)Gal(b1-4)GlcNAc(b1-3)Gal(b1-4)GlcNAc(b1-2)Man(a1-6)]Man(b1-4)GlcNAc(b1-4)GlcNAc
# Method in brief: as §1
# [31] = molecular target: Gal(b1-4)GlcNAc(b1-3)Gal(b1-4)GlcNAc(b1-3)Gal(b1-4)GlcNAc(b1-2)Man(a1-3)[Gal(b1-4)GlcNAc(b1-3)Gal(b1-4)GlcNAc(b1-3)Gal(b1-4)GlcNAc(b1-2)Man(a1-6)]Man(b1-4)GlcNAc(b1-4)[Fuc(a1-6)]GlcNAc
# Method in brief: as §1
# [32] = molecular target: Gal(b1-4)GlcNAc(b1-3)Gal(b1-4)GlcNAc(b1-3)Gal(b1-4)GlcNAc(b1-2)[Gal(b1-4)GlcNAc(b1-3)Gal(b1-4)GlcNAc(b1-3)Gal(b1-4)GlcNAc(b1-6)]Man(a1-6)[Gal(b1-4)GlcNAc(b1-3)Gal(b1-4)GlcNAc(b1-3)Gal(b1-4)GlcNAc(b1-2)Man(a1-3)]Man(b1-4)GlcNAc(b1-4)[Fuc(a1-6)]GlcNAc
# Method in brief: as §1
# [33] = molecular target: Gal(b1-4)GlcNAc(b1-3)Gal(b1-4)GlcNAc(b1-3)Gal(b1-4)GlcNAc(b1-3)Gal(b1-4)GlcNAc(b1-2)Man(a1-3)[Gal(b1-4)GlcNAc(b1-3)Gal(b1-4)GlcNAc(b1-3)Gal(b1-4)GlcNAc(b1-3)Gal(b1-4)GlcNAc(b1-2)Man(a1-6)]Man(b1-4)GlcNAc(b1-4)GlcNAc
# Method in brief: as §1
# [34] = molecular target: Gal(b1-4)GlcNAc(b1-3)Gal(b1-4)GlcNAc(b1-3)Gal(b1-4)GlcNAc(b1-3)Gal(b1-4)GlcNAc(b1-2)Man(a1-3)[Gal(b1-4)GlcNAc(b1-3)Gal(b1-4)GlcNAc(b1-3)Gal(b1-4)GlcNAc(b1-3)Gal(b1-4)GlcNAc(b1-2)Man(a1-6)]Man(b1-4)GlcNAc(b1-4)[Fuc(a1-6)]GlcNAc
# Method in brief: as §1
binder,measurement,setting,value
ACA (Amaranthus caudatus) (protein) MAGLPVIMCLKSNNNQKYLRYQSDNIQQYGLLQFSADKILDPLAQFEVEPSKTYDGLVHIKSRYTNKYLVRWSPNHYWITASANEPDENKSNWACTLFKPLYVEEGNMKKVRLLHVQLGHYTQNYTVGGSFVSYLFAESSQIDTGSKDVFHVIDWKSIFQFPKRYVTFKGNNGKYLGVITINQLPCLQFGYDNLNDPKVAHEMFVTSNGTICIKSTYMNKFWRLSTDDWILVDGNDPRETNEAAALFRSDVHDFNVISLLNMQKTWFIKRFTSGKPGFINCMNAATQNVDETAILEIIELGSNN,glycan array binding signal (z-score),Gal(b1-4)Glc6S,-0.011
same,glycan array binding signal (z-score),Gal(b1-4)GlcNAc,-0.223
same,glycan array binding signal (z-score),[1],-0.009
same,glycan array binding signal (z-score),Gal(b1-4)GlcNAc(b1-2)Man,-0.376
same,glycan array binding signal (z-score),[2],0.07
same,glycan array binding signal (z-score),[3],-0.312
same,glycan array binding signal (z-score),[4],0.193
same,glycan array binding signal (z-score),[5],-0.345
same,glycan array binding signal (z-score),[6],0.287
same,glycan array binding signal (z-score),[7],-0.094
same,glycan array binding signal (z-score),[8],-0.397
same,glycan array binding signal (z-score),[9],-0.339
same,glycan array binding signal (z-score),[10],-0.378
same,glycan array binding signal (z-score),[11],-0.388
same,glycan array binding signal (z-score),[12],-0.58
same,glycan array binding signal (z-score),[13],-0.152
same,glycan array binding signal (z-score),[14],0.301
same,glycan array binding signal (z-score),[15],0.016
same,glycan array binding signal (z-score),[16],-0.318
same,glycan array binding signal (z-score),[17],-0.359
same,glycan array binding signal (z-score),[18],-0.47
same,glycan array binding signal (z-score),[19],-0.586
same,glycan array binding signal (z-score),[20],-0.189
same,glycan array binding signal (z-score),[21],-0.467
same,glycan array binding signal (z-score),[22],-0.083
same,glycan array binding signal (z-score),[23],-0.12
same,glycan array binding signal (z-score),[24],-0.278
same,glycan array binding signal (z-score),[25],4.74
same,glycan array binding signal (z-score),[26],3.63
same,glycan array binding signal (z-score),[27],-0.059
same,glycan array binding signal (z-score),[28],0.493
same,glycan array binding signal (z-score),[29],0.04
same,glycan array binding signal (z-score),[30],5.84
same,glycan array binding signal (z-score),[31],0.163
same,glycan array binding signal (z-score),[32],0.14
same,glycan array binding signal (z-score),[33],0.284
same,glycan array binding signal (z-score),[34],0.3
